The values below come from ChEMBL document CHEMBL1201862, “PubChem BioAssay data set” (2004).

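The compound was tested at five concentrations on cells cultured in 96-well plates, with a 48-hour exposure period. GI50: concentration for 50% inhibition of growth.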 The source made the active and inactive calls. Cut-off read from the data, not from the text of the source: active = GI50 up to about 1.1 µM and inactive = higher. Some results are limits rather than exact numbers.

For this assay, the system named is NCI-H322M. As to the kind of experiment: NCI-60 cell line screen, 48 h.
On to `COC1=C(OC)C(=O)C(Sc2ccc3ccccc3c2)=CC1=O`, for which the GI50 was inactive: 5.57 µM.

Turning to `C#C[C@@H](CCCC)OC(=O)N[C@H](C)c1ccccc1`, the GI50 was inactive: > 100 µM.

Consider `CN1CC(C(=O)C2C(=O)c3ccccc3C2=O)C(=O)C(=O)C(C(=O)C2C(=O)c3ccccc3C2=O)C1` (configuration not stated), for which the GI50 is inactive: > 100 µM.

With `COc1ccc(NC(=S)NNC(=O)c2nsc3ccccc23)cc1`, the GI50 is inactive: 26.2 µM.

For `c1ccc(N/N=N/c2ccc(-c3nc4ccccc4o3)cc2)nc1`, the GI50 was inactive: > 100 µM.

`COc1cccc2c1C(=O)OC2c1cccc2ccccc12` (configuration not stated): the GI50 is inactive: > 60.8 µM.

As to `C=CN1C(=O)[C@H](Oc2ccccc2)[C@@H]1c1ccccc1`, the GI50 is inactive: 71.9 µM.

For the molecule `CCOC(=O)c1oc2cc3c(c4c2c1-c1ccccc1N4C)C=CC(C)(C)O3`, the GI50 was inactive: 18.8 µM.

Regarding `CC1CCN(c2nnc(Cl)cc2C(=O)c2ccccc2)CC1`, the GI50 is inactive: 49.9 µM.

With `Cc1cc2nc3c(C#N)c(-c4ccccc4)cc(Nc4ccc(F)cc4)n3c2cc1C`, the GI50 was inactive: 30.5 µM.

Turning to `COC(=O)C(=O)C(C(=O)Nc1cccc(C)c1C)C1Sc2ccccc2NC1=O` (configuration not stated), the GI50 is inactive: 17.4 µM.

As for `Cc1ccc(C2=Nc3ccccc3[S+]([O-])C(c3ccc4c(c3)OCO4)C2)cc1` (configuration not stated), the GI50 is inactive: 34.8 µM.

Take `COC1CC(OS(=O)(=O)c2ccc(C)cc2)C(OC(=O)c2ccccc2)C(C)O1` (configuration not stated): the GI50 was inactive: 57.4 µM.

With `CC1(C)CC(=O)C2=C(C1)NC(SCC(=O)O)=C(C#N)C2c1ccc(Br)cc1` (configuration not stated), the GI50 was inactive: > 100 µM.

In the case of `C[C@]12CC[C@H](O)CC1=CC[C@@H]1C2CC[C@]2(C)C(=O)NC(=O)CC12` (some centres not stated), the GI50 is inactive: 95.7 µM.

For `CC(=O)N1c2ccccc2Sc2cc(C(O)(C(F)(F)F)C(F)(F)F)ccc21`, the GI50 is inactive: > 10 µM.

Consider `c1ccc2c(c1)N=c1cc3c(cc1N2)=NC12CCCCC1CC1=C(CCCC1)N32` (configuration not stated), for which the GI50 is inactive: > 10 µM.

Take `CC(=O)OCC1OC(Nc2ncc(-c3ccc(C)cc3)s2)C(OC(C)=O)C(OC(C)=O)C1OC(C)=O` (configuration not stated): the GI50 was inactive: 68.9 µM.

`CCCCCN(CCCCC)CC(C)(C)C(O)c1ccc(OC)c2ccccc12` (configuration not stated): the GI50 was inactive: 11.5 µM.

Take `N#Cc1c(NC(=S)Nc2ccccc2)sc2c1CCCC2`: the GI50 was inactive: > 100 µM.

Take `CC(C)=NN/C(=N\c1ccc(Cl)cc1)NS(=O)(=O)c1cc(Cl)c(Oc2ccc([N+](=O)[O-])cc2Cl)c(Cl)c1`: the GI50 was inactive: > 100 µM.

With `O=c1cc(NNc2cccc(Cl)c2)[nH]c(=O)[nH]1`, the GI50 was inactive: > 100 µM.

As to `Cc1ccc(C2SCC(=O)N2c2ccc(-c3ccc(-n4c(-c5ccccc5)nc5ccccc5c4=O)cc3)cc2)cc1` (configuration not stated), the GI50 is inactive: > 100 µM.

Turning to `O=C1Nc2ccccc2C1S(=O)(=O)c1ccccc1` (configuration not stated), the GI50 was inactive: > 100 µM.

Regarding `CC(C)(C)c1ccc(OC2CCO2)cc1` (configuration not stated), the GI50 is inactive: 89.5 µM.

For the molecule `CC1CCC(O)(C(C)(C(=O)O)c2ccccc2)CC1` (configuration not stated), the GI50 was inactive: > 100 µM.

On to `C1CN2CCO[SiH](O1)OCC2`, for which the GI50 is inactive: > 100 µM.

Turning to `Cc1cc(C)nc(NS(=O)(=O)c2ccc(NNc3c4ccccc4nc4c(C(=O)Nc5ccc(S(=O)(=O)Nc6ncccn6)cc5)cccc34)cc2)n1`, the GI50 is inactive: 38 µM.

Take `C=C1C[C@H](O)[C@H]2C(C[Se]c3ccccc3)C(=O)O[C@@H]2[C@H]2[C@H](C)C(O)C[C@@H]12` (some centres not stated): the GI50 is inactive: 41.5 µM.

Regarding `N#CC1(C#N)NC(c2ccsc2)C(C#N)(C#N)NC1c1ccsc1` (configuration not stated), the GI50 is inactive: > 100 µM.

As to `COc1ccc(-c2cc(-c3ccc(Nc4ccnc5cc(Cl)ccc45)cc3)[nH]c(=O)c2C#N)c2ccccc12`, the GI50 is inactive: 13.7 µM.

For the molecule `Nc1ccc(S(=O)(=O)Nc2nnc(S(N)(=O)=O)s2)cc1`, the GI50 is inactive: > 100 µM.
